# Assay results: paper PMC7819943, “Rice protein-binding microarrays: a tool to detect cis-acting elements near promoter regions in rice”
# The other results are listed elsewhere or left out.
# Target: T1, OsWOX13 (Oryza sativa, UniProt Q5QMM3 1-267)
# T1 sequence: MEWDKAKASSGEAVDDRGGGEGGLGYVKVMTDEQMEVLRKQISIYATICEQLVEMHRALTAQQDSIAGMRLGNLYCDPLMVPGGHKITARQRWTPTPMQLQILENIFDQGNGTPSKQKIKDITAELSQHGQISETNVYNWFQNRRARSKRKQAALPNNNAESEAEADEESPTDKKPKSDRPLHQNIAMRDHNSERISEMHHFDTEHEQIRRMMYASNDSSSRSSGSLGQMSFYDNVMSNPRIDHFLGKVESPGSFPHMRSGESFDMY
# Assay: protein-binding microarray (RPBM); PBS, 2% BSA, 51.3 ng/ul salmon testes DNA, 50 uM zinc acetate, 200 nM TF, 25 C, 1 h; high values mean tight binding
# Conditions: protein: recombinant; tags: N-terminal polyhistidine and DsRed monomer fusion (pET32a); label: CyDye5-dUTP incorporated in the synthesized complementary strand; 3' TTTTT single-stranded linker to array surface; dsDNA, one strand shown
# Procedure, shortened: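 The binding signal is fluorescence intensity per feature, in arbitrary units, read on an Axon 4000B scanner. Polyhistidine- and DsRed-tagged transcription factors (N-terminal fusions) from E. coli BL21-CodonPlus were purified on Ni–NTA and applied at 200 nM for 1 h at 25 °C to a double-stranded, BSA-blocked custom Agilent array in buffer with 50 µM zinc acetate.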
row,Sequence,binding signal
1,ATGGTAATTGAATTCTGCCATGATACAAACAGAAAGAAACCGGAGTCACCTAGTGCAG,12000 fluorescence intensity (a.u.)
2,CGTAGTTGATCAATGATCATGTCTTCGTGTTCGTGACCTGCGGAGTCACCTAGTGCAG,3620 fluorescence intensity (a.u.)
3,AACACGAAAATTGATATAGCTAACACCCAAATGTATATAACGGAGTCACCTAGTGCAG,3160 fluorescence intensity (a.u.)
4,AAGGATGATTTTATAAATCTATGGGTGACAAGATGAGGGACGGAGTCACCTAGTGCAG,18600 fluorescence intensity (a.u.)
5,ACAAGATTGACCAGGGTTCGCGAAATAAAGCAATAAGATTCGGAGTCACCTAGTGCAG,10100 fluorescence intensity (a.u.)
6,ACTATATTAATTAAGAGAGAGTGAAGAGAGGAGGAAACTGCGGAGTCACCTAGTGCAG,4440 fluorescence intensity (a.u.)
7,GTTTTCAGTTATATTTTAACTGTTAGCGACTTAGGCATGGCGGAGTCACCTAGTGCAG,3440 fluorescence intensity (a.u.)
8,GTGAAAGTTAATTAAGAGTTCAATGCAACTACTAACAACACGGAGTCACCTAGTGCAG,4860 fluorescence intensity (a.u.)
9,GGGTCCAGATTGCCAAGACACAAATTGGGGCCCACTACTCCGGAGTCACCTAGTGCAG,3500 fluorescence intensity (a.u.)
10,GCCATGATTTTGACAATGTGATGTTACATTAAACTTTTGACGGAGTCACCTAGTGCAG,12000 fluorescence intensity (a.u.)
11,GAAATTAACCAATCAAGCACTTGGCTAGCATAATTCCTTTCGGAGTCACCTAGTGCAG,37800 fluorescence intensity (a.u.)
12,CTGTTAATTGCAAGCACCTTTTCACAATGGAGGACACTAACGGAGTCACCTAGTGCAG,27500 fluorescence intensity (a.u.)
13,TAACTAATTAATTAAGCTACTCCGTATTACGCACCGTAGCCGGAGTCACCTAGTGCAG,46800 fluorescence intensity (a.u.)
14,TCAATTTGATAGATAGATTTCATAATAGGGTTAAATAAGCCGGAGTCACCTAGTGCAG,32600 fluorescence intensity (a.u.)
15,TATCACTAATAATTTAGCTCAGTTTGACAAGACGGATATCCGGAGTCACCTAGTGCAG,4380 fluorescence intensity (a.u.)
16,ATTTATTTATATATTTAAATTTAAAGAAAATTAAAAGAACCGGAGTCACCTAGTGCAG,3510 fluorescence intensity (a.u.)
17,GTTGATTTCACGACCTGCTCGCTGAGGAATGGAGGTCCAGCGGAGTCACCTAGTGCAG,3180 fluorescence intensity (a.u.)
18,AATAGATAGATTGATACCACCACTTAACTATACTAATGCTCGGAGTCACCTAGTGCAG,63700 fluorescence intensity (a.u.)
19,TGACGTAATTAGGCTCAAAAGATTCGTCTCGTAATTTACACGGAGTCACCTAGTGCAG,8880 fluorescence intensity (a.u.)
20,AATATATGATGATTAATGATATAACAATAAGTTCGACAAACGGAGTCACCTAGTGCAG,8700 fluorescence intensity (a.u.)
21,ATTAAGCCTAATTAATCCATCATTAGTAAATATTTACTGTCGGAGTCACCTAGTGCAG,8920 fluorescence intensity (a.u.)
22,GTTTTAGCAAGTGATTGAAAATAACTCATGGGAGCTGTCGCGGAGTCACCTAGTGCAG,31800 fluorescence intensity (a.u.)
23,TCAAAGTAGATTGACTCCAATTGAACTGGCTTTGGCCGTTCGGAGTCACCTAGTGCAG,41200 fluorescence intensity (a.u.)
24,TCGTTTGATTAACCAGGAATATTCGTCTTAATTTAGCTACCGGAGTCACCTAGTGCAG,28800 fluorescence intensity (a.u.)
25,CAAAATAATTAATTGCATGATCCCGGTTTGTTAGGGGTCGCGGAGTCACCTAGTGCAG,48800 fluorescence intensity (a.u.)
26,AGGTAACTGACTGCCACTTTACATTGTGCAGTTAGTGCGTCGGAGTCACCTAGTGCAG,24900 fluorescence intensity (a.u.)
27,TTGAATATAATTTGCGTATCCACCGTTTATGTAATCAATCCGGAGTCACCTAGTGCAG,6490 fluorescence intensity (a.u.)

row,Sequence,binding signal
1,GGATTAATTAGGCTTAATAAATTCGTGTCGCAATTTACATCGGAGTCACCTAGTGCAG,29300 fluorescence intensity (a.u.)
2,GTCGTCCTCGCCGCCGTCGCTCTCACCACCACCACACTATCGGAGTCACCTAGTGCAG,7960 fluorescence intensity (a.u.)
3,GCTGTTTAATTAAATTAAATGTAAATGCCTTACAGCTTATCGGAGTCACCTAGTGCAG,29000 fluorescence intensity (a.u.)
4,TAGCATGATTTCTTATATATTGACCAAATTTAGCAACAAACGGAGTCACCTAGTGCAG,6230 fluorescence intensity (a.u.)
5,TTAATTGGTTTACACATCTTTATCGAACCATGTACATGATCGGAGTCACCTAGTGCAG,39900 fluorescence intensity (a.u.)
6,CAAGACACGAACTTGATAGATACAGTAGGACGATGGCATGCGGAGTCACCTAGTGCAG,7940 fluorescence intensity (a.u.)
7,TTATAAATAAATTAGTATATCAAATATAAAATATCATTCACGGAGTCACCTAGTGCAG,11100 fluorescence intensity (a.u.)
8,CGTTCTTGTTCTTGTTCTTGTCCTCCTCTGCTTTAATTTTCGGAGTCACCTAGTGCAG,3890 fluorescence intensity (a.u.)
9,AATTAATTAATCAAGGTTGTAACCACACAGATCGATGGACCGGAGTCACCTAGTGCAG,41700 fluorescence intensity (a.u.)
10,AGGGGTAAATCACAGTTACTGTACCAATCCAAAATATTTGCGGAGTCACCTAGTGCAG,5110 fluorescence intensity (a.u.)
11,ACTTCCAATATAATTATTCTTTGTTTTCACAAATTTCAATCGGAGTCACCTAGTGCAG,4820 fluorescence intensity (a.u.)
12,TCGAAATTTCGAAATCAAATCGGTGCGAGCGATGAGCCGACGGAGTCACCTAGTGCAG,4710 fluorescence intensity (a.u.)
13,TCAAATTATTGGCGAATATACAAAGCGGCAAGTGGTGTACCGGAGTCACCTAGTGCAG,5530 fluorescence intensity (a.u.)
14,AAGAGTTTATTGATGAGTAGGAATCGACGTATTCTAGATTCGGAGTCACCTAGTGCAG,3560 fluorescence intensity (a.u.)
15,TCAATCAATCAATTAATTAGTAATTCAAAGTACTAAACACCGGAGTCACCTAGTGCAG,40200 fluorescence intensity (a.u.)
16,TACTCCAATTGATAGCCTGCAATATTCGCTTTCAGAATTTCGGAGTCACCTAGTGCAG,6160 fluorescence intensity (a.u.)
17,AATGTTAATTTTAAAATCCTTAATACACCTTAAAATCACCCGGAGTCACCTAGTGCAG,15800 fluorescence intensity (a.u.)
18,GTCTTAAACAATTGATTATATACATCCAAGCATATCTCCACGGAGTCACCTAGTGCAG,13800 fluorescence intensity (a.u.)
19,CTAATTGACATGAAACAAACTTTTCTAAACCTAATCAGAGCGGAGTCACCTAGTGCAG,35900 fluorescence intensity (a.u.)
20,AATCAATTTAATAATTGATTAAACAGAGCAAATTTTAGCTCGGAGTCACCTAGTGCAG,65100 fluorescence intensity (a.u.)
21,CTGACCACACTAAATTAGTATGTAGTATACACAGGCATACCGGAGTCACCTAGTGCAG,3860 fluorescence intensity (a.u.)
22,GGCCCTGGTGATTTGACAGGTGGGCTGGGCTACAACGAGCCGGAGTCACCTAGTGCAG,8490 fluorescence intensity (a.u.)
23,ACACATAATGTAATCTATTTTGATATAACCAAAAGCTGTTCGGAGTCACCTAGTGCAG,7540 fluorescence intensity (a.u.)
24,TTACATGGTAACCGATTGACAGTGTACTCTACAAACGTATCGGAGTCACCTAGTGCAG,3810 fluorescence intensity (a.u.)
25,ACATTTAATTTGTTCCTCTCTGATACTACTAGACCCCAAACGGAGTCACCTAGTGCAG,19500 fluorescence intensity (a.u.)
26,ATGTTCCTAATTAGGGGCAGACGATTTCTTGAACTGTACTCGGAGTCACCTAGTGCAG,12500 fluorescence intensity (a.u.)
27,GGTGGTAATTGTTTTACTCGCATACCACAAAATCTCAGTTCGGAGTCACCTAGTGCAG,7950 fluorescence intensity (a.u.)
